The values that follow come from PubChem BioAssay AID1745853 (National Center for Advancing Translational Sciences (NCATS), 2022).

What all share (test): Primary Screen for Target Class Profiling of Small Molecule Inhibitors of Methyltransferases
Experiment [1] has as its target Guanidinoacetate N-methyltransferase (Homo sapiens) (UniProt Q14353). As to conditions: purified enzyme, MTase-Glo SAH luminescence; measured here: GAMT inhibition; at 40 µM; stronger effect = lower value. Summed up:
(§1)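 Each enzyme was assayed with SAM and its substrate. SAH formation detected by MTase-Glo luminescence; single-point 40 uM screen[…].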

The target in experiment [2] is Nicotinamide N-methyltransferase (Homo sapiens) (UniProt P40261). As to conditions: purified enzyme, MTase-Glo SAH luminescence; measured here: NNMT inhibition; at 40 µM; stronger effect = lower value. The essentials:
as §1

Experiment [3] addresses Phenylethanolamine N-methyltransferase (Homo sapiens) (UniProt P11086). As to conditions: purified enzyme, MTase-Glo SAH luminescence; measured here: PNMT inhibition; at 40 µM; stronger effect = lower value. Summed up: as §1
Experiment [4] addresses Glycine N-methyltransferase (Homo sapiens) (UniProt Q14749). As to conditions: purified enzyme, MTase-Glo SAH luminescence; measured here: GNMT inhibition; at 40 µM; stronger effect = lower value. Summed up: as §1
Experiment [5] has as its target Histamine N-methyltransferase (Homo sapiens) (UniProt P50135). As to conditions: purified enzyme, MTase-Glo SAH luminescence; measured here: HNMT inhibition; at 40 µM; stronger effect = lower value. Summed up: as §1

Molecules are shown by their SMILES. This is one part of the list. Further columns of the screen follow, without active or inactive calls.
% is scaled to controls: 0 for no effect and ±100 for the full control effect.

`CC(=O)[C@H]1CCC2C3CCC4=CC(=O)CC[C@]4(C)C3[C@H](O)C[C@@]21C` (stereo not given in full): the activity change, negative = inhibition in experiment [1] is 4.93%; in experiment [2], -10.4%; in experiment [3], -0.023%.

Turning to `Cc1ccc(N2C(=O)c3cc(-c4ccco4)nn3CC2(C)C(=O)NC2CCCCC2)cc1` (stereo not given), the activity change, negative = inhibition in experiment [4] was -7.69%; in experiment [1], 2.87%; in experiment [5] it was 6.82%; in experiment [2], 2.88%; in experiment [3], -1.96%.

`CC(C)NC(=O)C[C@@H]1O[C@H](CNC(=O)C2CC2)[C@@H](O)[C@H]1O`: the activity change, negative = inhibition was -2.84% in experiment [4]; -9.13% in experiment [1]; -2.82% in experiment [5]; -15.6% in experiment [2]; -13.5% in experiment [3].

Consider `COc1ccc(-c2cc3n(n2)CC(C)(C(=O)NCc2ccccc2OC)N(Cc2ccccc2F)C3=O)cc1` (stereo not given), for which the activity change, negative = inhibition in experiment [4] is -6.55%; in experiment [1], 3.04%; in experiment [5], -1.92%; in experiment [2], 1.55%; in experiment [3] it was -16.8%.

For the compound `O=C(Nc1ccc(-c2ccnc(Nc3ccc(N4CCOCC4)cc3)n2)cc1)C1CCCN1` (stereo not given), the activity change, negative = inhibition in experiment [4] is -19.1%; in experiment [5] it was -2.47%.

As for `CCCCOc1c(C(=O)c2c(F)cc(C)cc2F)cnc2n[nH]cc12`, the activity change, negative = inhibition is -6.21% in experiment [4]; -2.93% in experiment [1]; -7.84% in experiment [5]; -12.5% in experiment [2]; -3.8% in experiment [3].

For `O=C(O)c1cn(C2CC2)c2cc(N3C[C@@H]4C[C@H]3CN4)c(F)cc2c1=O`, the activity change, negative = inhibition in experiment [4] is 0.178%; in experiment [1], 0.952%; in experiment [5], 2.98%; in experiment [2], -6.78%; in experiment [3], 5.92%.

As to `Oc1ccccc1CN1CC(CNc2cccnc2)C2(C1)CN(c1ccccc1)C2` (stereo not given), the activity change, negative = inhibition in experiment [4] was -10.3%; in experiment [1], -9.62%; in experiment [5], -32.7%; in experiment [2], -15.9%; in experiment [3], -14.2%.

Regarding `COc1ccc(CN[C@H]2CC(C)(C)[C@@H]3C[C@@](C)(O)CC[C@]23CCC(=O)NCc2ccco2)cc1`, the activity change, negative = inhibition was -5.23% in experiment [4]; -7.69% in experiment [1]; -26.5% in experiment [5]; -11.5% in experiment [2]; -4.46% in experiment [3].

For `Cn1nc2n(Cc3ccccc3)c(=O)c3ccc(C(=O)NC4CCCC4)cc3n2c1=O`, the activity change, negative = inhibition in experiment [4] was found to be 1.27%; in experiment [1] it was 0%; in experiment [5], 0.804%; in experiment [2] it was 1.39%; in experiment [3] it was 1.22%.

With `COc1ccc(-c2cc(C[C@H]3CNCC[C@H]3CC(=O)N3CCN(C)CC3)no2)cc1`, the activity change, negative = inhibition in experiment [4] was -3.74%; in experiment [1] it was 4.13%; in experiment [5], 0.054%; in experiment [2] it was 0.87%; in experiment [3], 15.2%.

Take `COc1ccccc1OCCNC(=O)C1(C)CCCCC(=O)N1` (stereo not given): the activity change, negative = inhibition is -3% in experiment [4]; -1.89% in experiment [1]; -1.38% in experiment [5]; -4.6% in experiment [2]; -3.58% in experiment [3].

As to `Cc1ccc(C(=O)Cn2nc3n(CCCOC(C)C)c(=O)c4ccccc4n3c2=O)c(C)c1`, the activity change, negative = inhibition was 0.095% in experiment [4]; -2.54% in experiment [1]; 0.596% in experiment [5]; -5.42% in experiment [2]; -1.23% in experiment [3].

Regarding `OCCc1cc(CC2(NCc3ccc(CO)o3)COC2)no1`, the activity change, negative = inhibition in experiment [4] is -3.72%; in experiment [1], 2.43%; in experiment [5], 3.27%; in experiment [2], -1.13%; in experiment [3] it was 0.149%.

For the compound `CCCn1c(=O)c2ccccc2n2c(SCC(=O)Nc3ccc(F)cc3F)nnc12`, the activity change, negative = inhibition in experiment [4] is -4.62%; in experiment [1] it was 1.52%; in experiment [5] it was 1.9%; in experiment [2], -7.37%; in experiment [3] it was -0.75%.

For the compound `COc1cccc(CN2CC(Oc3ccccc3C(=O)NC3CC3)C2)c1`, the activity change, negative = inhibition was -2.22% in experiment [4]; -2.15% in experiment [1]; 0.188% in experiment [5]; -5.24% in experiment [2]; 2.32% in experiment [3].

For the compound `COC(=O)c1ncn2c1C(=O)N(Cc1ccc(OC(C)C)cc1)C(C)(C(=O)NC1CCCC1)C2` (stereo not given), the activity change, negative = inhibition in experiment [4] is -8.19%; in experiment [1], -1.83%; in experiment [5], -2.43%; in experiment [2], -1.36%; in experiment [3], -1.14%.
